Screen size: about 310,000 compounds; about 14,000 (4.5%) showed an effect of 50% or more. Effects have a minus sign here. Some of the results follow.
These compounds were tested against human ether-à-go-go-related gene (hERG) potassium channel (human, UniProt Q12809) (assay: primary screen, population patch clamp on CHO cells stably expressing hERG).
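Further: peak tail current of the secondary pulse compared with the same well before compound.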

human ether-à-go-go-related gene (hERG) potassium channel, sequence (Q12809 whole entry, looked up): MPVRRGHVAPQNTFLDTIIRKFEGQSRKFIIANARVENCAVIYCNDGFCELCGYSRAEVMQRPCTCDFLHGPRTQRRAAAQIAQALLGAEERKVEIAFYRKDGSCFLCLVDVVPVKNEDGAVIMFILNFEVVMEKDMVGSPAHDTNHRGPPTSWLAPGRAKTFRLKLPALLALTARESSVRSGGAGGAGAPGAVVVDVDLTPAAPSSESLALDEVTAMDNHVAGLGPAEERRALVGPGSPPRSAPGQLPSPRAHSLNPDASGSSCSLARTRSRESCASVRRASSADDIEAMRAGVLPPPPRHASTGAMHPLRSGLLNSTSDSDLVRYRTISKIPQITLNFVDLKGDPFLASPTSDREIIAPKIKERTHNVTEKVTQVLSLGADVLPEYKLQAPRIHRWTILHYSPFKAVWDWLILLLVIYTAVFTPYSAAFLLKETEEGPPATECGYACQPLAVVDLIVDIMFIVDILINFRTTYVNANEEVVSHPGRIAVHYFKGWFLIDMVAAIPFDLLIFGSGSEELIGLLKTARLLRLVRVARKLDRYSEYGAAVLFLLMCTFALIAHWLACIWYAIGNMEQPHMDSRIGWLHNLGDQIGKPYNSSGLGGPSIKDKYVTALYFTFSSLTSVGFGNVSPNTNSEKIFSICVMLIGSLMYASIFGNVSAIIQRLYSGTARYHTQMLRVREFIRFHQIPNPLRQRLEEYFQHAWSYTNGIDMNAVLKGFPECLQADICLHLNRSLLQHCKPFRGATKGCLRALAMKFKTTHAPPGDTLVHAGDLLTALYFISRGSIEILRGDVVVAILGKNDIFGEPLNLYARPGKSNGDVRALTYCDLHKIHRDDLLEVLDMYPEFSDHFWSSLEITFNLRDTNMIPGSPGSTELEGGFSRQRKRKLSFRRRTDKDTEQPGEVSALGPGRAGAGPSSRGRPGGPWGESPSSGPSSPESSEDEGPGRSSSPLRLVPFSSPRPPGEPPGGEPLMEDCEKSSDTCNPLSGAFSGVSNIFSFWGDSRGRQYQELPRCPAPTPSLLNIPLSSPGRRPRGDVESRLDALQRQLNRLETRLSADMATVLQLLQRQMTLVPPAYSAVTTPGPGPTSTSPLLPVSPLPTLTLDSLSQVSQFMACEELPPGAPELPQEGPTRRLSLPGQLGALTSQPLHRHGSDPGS

| Structure (SMILES) | hERG current change (%, negative = inhibition) at 10uM |
| --- | --- |
| C=CCOc1ccc(/C=C\c2nc(O)c([N+](=O)[O-])c(=O)[nH]2)cc1OC | 10.7% |
| CN(C)c1ccc(C2NC(=O)c3ccccc3N2)cc1 (centres unmarked) | 16.5% |
| Cc1cc(C)cc(OCC(=O)O/N=C(\N)Cc2ccc([N+](=O)[O-])cc2)c1 | -2.56% |
| CC1CC2(NC(=O)NC2=O)C(C)CN1C (centres unmarked) | 17.6% |
| Cc1ccc(S(=O)(=O)c2nc(-c3cccs3)oc2NCCCN(C)C)cc1 | -67.8% |
| O=C(c1cccc(S(=O)(=O)N2CCCC2)c1)N1CCCc2ccccc21 | -15.6% |
| CC(Sc1n[nH]c(=O)n1Cc1ccccc1)C(=O)NC1CCCCC1C (centres unmarked) | 4.27% |
| CNS(=O)(=O)c1cc(OC)ccc1OC | 13.2% |
| O=C(Nc1ccc(Cl)cc1)Nc1cc([N+](=O)[O-])ccc1F | 5.04% |
| CC(C)=NOCC(=O)Nn1c(COc2ccccc2)nc2ccccc2c1=O | 15.3% |
| Cc1ccc(CCC(=O)Nc2ccc(Cl)cc2)o1 | 12.8% |
| Cc1ccc(C(=O)CSc2cc(C)nc(SCC(=O)c3ccccc3)n2)cc1 | 7.9% |
| Cc1nn(C(C)C(=O)NCc2ccco2)c(C)c1[N+](=O)[O-] (centres unmarked) | 9.83% |
| COc1ccccc1C(=O)Nc1ccc2c(c1)CCCN2C(=O)c1cccs1 | -1% |
| O=C(/N=C1\NC(=O)C(F)(C(F)(F)F)S1)NC1CCCCC1 (centres unmarked) | 13% |
| COc1ccc(-n2c(SCC(N)=O)nnc2-c2cccnc2)cc1 | 11.4% |
| Cl.OCCNc1nc(Nc2ccccc2)nc2ccccc12 | -35% |
| CSc1ccc(/C=N/N2CCN(C)CC2)cc1.Cl | -5.91% |
| CCOC(=O)c1cn(CC)c2cc(F)c(F)cc2c1=O | 3.48% |
| O=[N+]([O-])c1ccc(N/N=C/c2ccc[nH]2)cc1 | -8.38% |
| c1ccc(OCCOc2ccccc2-c2nnco2)cc1 | -8.44% |
| COc1ccccc1NC(=O)c1ccc2[nH]c(C)c(C)c2c1 | 3.62% |

| Structure (SMILES) | hERG current change (%, negative = inhibition) at 10uM |
| --- | --- |
| COc1cc2c(cc1OC)C(c1c(Cl)cccc1Cl)NC(=O)C2 (centres unmarked) | 18.4% |
| C/C(CC(=O)Nc1ccc([N+](=O)[O-])cc1)=N/NC(=O)C1C2CCCCC21 (centres unmarked) | -21.7% |
| COc1cccc(N=Nc2ccc(O)c3ncccc23)c1 | 16.4% |
| CCCCn1c(N)c(N(CC)C(=O)c2ccc([N+](=O)[O-])c(C)c2)c(=O)[nH]c1=O | 23.1% |
| CC(C)CNC(=S)NC(=O)c1ccc(Cl)cc1 | -3.27% |
| Cc1cc(C(=O)O)c(=O)[nH]c1C | 13.9% |
| Cc1cc(C(=O)OCC(=O)N2CCOCC2)c2ccccc2n1 | 19.1% |
| CC(=O)OC1CC(c2cc(C(C)(C)C)c(O)c(C(C)(C)C)c2)=NO1 (centres unmarked) | 0.755% |
| CCN(CC)c1ccc(CN(C(=O)c2cccs2)C2CCS(=O)(=O)C2)cc1 (centres unmarked) | -9.26% |
| Cc1nn(C)c(=O)n1-c1ccccc1 | 29.3% |
| COc1ccc(-c2cc(=Nc3c(C)n(C)n(-c4ccccc4)c3=O)c3ccccc3o2)cc1 | -68.1% |
| COc1cccc(NC(=O)CSc2nc3ccsc3c(=O)n2-c2ccc(C(=O)O)cc2)c1 | -1.02% |
| Cc1c(N=Cc2c(O)n(Cc3ccco3)c(=O)c3ccccc23)c(=O)n(-c2ccccc2)n1C | -5.6% |
| COCCn1c(N)c(C(=O)c2cccc(S(=O)(=O)N3CCCCCC3)c2)c(=O)[nH]c1=O | -46.7% |
| O=C(c1csc2ccccc12)N1CCN(c2ccc(Cl)c(Cl)c2)CC1 | -12.5% |
| Cc1cc(C)c(C(=O)C[n+]2cccc(C(N)=O)c2)c(C)c1.[Br-] | -14.1% |
| COC(=O)c1ccc(C(NC(=O)c2cccnc2)NC(=O)c2cccnc2)cc1 | 21.8% |
| C#CCN1C(=O)C(O)(c2c(C)[nH]c3ccccc23)c2ccccc21 (centres unmarked) | 16.4% |
| O=C(Nc1ccnn1C1CCN(CC2CC=CCC2)CC1)c1ccccc1Cl (centres unmarked) | -70.7% |
| COC(=O)CCN(C(=O)C1C2CC3CC(C2)CC1C3)c1ccccn1 (centres unmarked) | 10% |
| CC(=O)C1=C(O)C(=O)N(Cc2cccnc2)C1c1ccc(Cl)cc1Cl (centres unmarked) | 3.96% |
| Cc1c(CCOC(=O)c2cc([N+](=O)[O-])cc([N+](=O)[O-])c2)sc[n+]1CC(=O)c1ccc(Br)cc1.[Br-] | -40.7% |

— PMC4336329 (PLoS ONE, 2015)
